From paper PMC4336329 (PLoS ONE, 2015)
The campaign covered roughly 310,000 compounds. About 14,000 (4.5%) showed an effect of 50% or more. The effect is printed as a negative number. This is one part of the list.
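Note: peak tail current of the secondary pulse compared with the same well before compound.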

What follows are molecules tested against human ether-à-go-go-related gene (hERG) potassium channel (human, UniProt Q12809) (assay: primary screen, population patch clamp on CHO cells stably expressing hERG).
human ether-à-go-go-related gene (hERG) potassium channel, sequence (Q12809 whole entry, looked up): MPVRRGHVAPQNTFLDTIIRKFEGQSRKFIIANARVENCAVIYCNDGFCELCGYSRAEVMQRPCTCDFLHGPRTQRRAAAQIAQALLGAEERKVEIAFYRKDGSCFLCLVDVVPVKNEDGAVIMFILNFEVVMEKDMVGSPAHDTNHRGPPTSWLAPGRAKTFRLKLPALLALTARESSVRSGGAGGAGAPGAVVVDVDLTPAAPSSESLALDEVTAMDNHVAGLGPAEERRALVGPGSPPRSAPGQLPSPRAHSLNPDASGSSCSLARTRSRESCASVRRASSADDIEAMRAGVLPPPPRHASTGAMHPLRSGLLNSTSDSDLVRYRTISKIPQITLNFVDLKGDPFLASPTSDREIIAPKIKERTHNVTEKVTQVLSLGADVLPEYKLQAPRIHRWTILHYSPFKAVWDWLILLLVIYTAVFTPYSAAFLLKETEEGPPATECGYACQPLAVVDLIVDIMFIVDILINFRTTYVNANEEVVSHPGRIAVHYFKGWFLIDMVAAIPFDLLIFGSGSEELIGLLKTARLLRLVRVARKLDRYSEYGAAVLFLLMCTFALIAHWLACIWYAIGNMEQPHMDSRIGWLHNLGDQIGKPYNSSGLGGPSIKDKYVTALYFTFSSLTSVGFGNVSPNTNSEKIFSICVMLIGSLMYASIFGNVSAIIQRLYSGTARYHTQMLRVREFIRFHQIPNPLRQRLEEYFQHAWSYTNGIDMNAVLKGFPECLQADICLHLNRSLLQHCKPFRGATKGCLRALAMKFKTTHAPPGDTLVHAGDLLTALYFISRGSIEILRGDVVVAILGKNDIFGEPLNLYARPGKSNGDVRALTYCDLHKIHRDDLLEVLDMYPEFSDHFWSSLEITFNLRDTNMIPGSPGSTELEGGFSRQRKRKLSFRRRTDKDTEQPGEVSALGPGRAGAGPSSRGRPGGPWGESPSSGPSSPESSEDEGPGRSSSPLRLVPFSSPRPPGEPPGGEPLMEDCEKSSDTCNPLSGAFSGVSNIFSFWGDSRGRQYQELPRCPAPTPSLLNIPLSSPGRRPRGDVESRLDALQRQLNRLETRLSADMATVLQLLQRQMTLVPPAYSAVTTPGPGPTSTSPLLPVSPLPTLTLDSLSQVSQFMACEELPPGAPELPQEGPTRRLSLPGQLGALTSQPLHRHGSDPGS
CS(=O)(=O)N1CCc2ccc(NC(=O)C3CCCO3)cc2C1 (centres unmarked) was tested, and the “hERG current change (%, negative = inhibition) at 10uM” value was 18.8%.
In the case of O=C(O)c1cc(-c2cccc3ccccc23)nc2ccccc12, the “hERG current change (%, negative = inhibition) at 10uM” value is reported as 14.1%.
In the case of Cc1ccc(S(=O)(=O)NCc2ccc(N3CCN(C(=O)OC(C)(C)C)CC3)cc2)cc1, the “hERG current change (%, negative = inhibition) at 10uM” value is reported as 9.55%.
For COc1ccc(CN2C(=O)CN(C3CCCCCC3)C(=O)C2c2ccc(F)cc2)cc1 (centres unmarked), the “hERG current change (%, negative = inhibition) at 10uM” value was 3.27%.
With Cc1ccccc1SCC(=O)Nc1cc(S(=O)(=O)N2CCOCC2)ccc1N1CCOCC1 the “hERG current change (%, negative = inhibition) at 10uM” value was -8.57%.
Clc1ccc(OCCSc2nnnn2C2CCCCC2)cc1 was tested, and the “hERG current change (%, negative = inhibition) at 10uM” value was -13.4%.
With Cc1nnc2ccc(-c3ccc(NS(=O)(=O)c4ccccc4F)cc3)nn12 the “hERG current change (%, negative = inhibition) at 10uM” value was -9.46%.
For O=C1CCOc2cc(OCc3ccccc3)ccc21, the “hERG current change (%, negative = inhibition) at 10uM” value was -17.5%.
Cc1cc(=O)oc2cc(OCC(=O)N3CC(=O)Nc4ccccc43)c(Cl)cc12 was tested, and the “hERG current change (%, negative = inhibition) at 10uM” value was -10.3%.
With OC1(c2ccc(F)cc2)CSC(=Nc2cccnc2)N1Cc1ccco1 (centres unmarked) the “hERG current change (%, negative = inhibition) at 10uM” value was -14.2%.
O=C(COC(=O)Cc1c(Cl)cccc1Cl)Nc1ccc2[nH]c(=O)[nH]c2c1 was tested, and the “hERG current change (%, negative = inhibition) at 10uM” value was 12.1%.
With CN1c2ccccc2C(C)(C)C12C=Cc1cc(O)ccc1O2 (centres unmarked) the “hERG current change (%, negative = inhibition) at 10uM” value was -5.61%.
With CCN(CC)c1nc2c(s1)C(=O)CC(C)(C)C2 the “hERG current change (%, negative = inhibition) at 10uM” value was 0.00258%.
For Cc1ccc(NC2=NCC(=O)N2Cc2cccs2)cc1C.Cl, the “hERG current change (%, negative = inhibition) at 10uM” value was -43.8%.
With CN(c1ccccc1)S(=O)(=O)c1ccc(C(=O)NNC(=O)c2ccccc2F)cc1 the “hERG current change (%, negative = inhibition) at 10uM” value was -0.373%.
Cc1c(-c2ccccc2)nc2ccccc2c1C(=O)Nc1ccncc1 was tested, and the “hERG current change (%, negative = inhibition) at 10uM” value was -40.9%.
With O=C(/C=N/O)Nc1ccc2sc3ccccc3c2c1 the “hERG current change (%, negative = inhibition) at 10uM” value was 15.3%.
CCOC(=O)Cc1csc(NC(=O)COc2c(C)cccc2C)n1 was tested, and the “hERG current change (%, negative = inhibition) at 10uM” value was 23.6%.
CC1CCN(c2cc(=O)n(C3CCCCC3)c(=O)[nH]2)CC1 was tested, and the “hERG current change (%, negative = inhibition) at 10uM” value was 6.69%.
CCOC(=O)C1=C(COC(=O)COc2ccc(C(=O)CC)cc2)NC(=O)NC1C (centres unmarked) was tested, and the “hERG current change (%, negative = inhibition) at 10uM” value was -25.5%.
For Cc1csc(NC(=O)c2cccc(Cn3nc(C)c(Br)c3C)c2)n1, the “hERG current change (%, negative = inhibition) at 10uM” value was -8.88%.
In the case of Cc1cccc(N=C2NC(=O)/C(=C/C=C/c3ccco3)S2)c1C, the “hERG current change (%, negative = inhibition) at 10uM” value is reported as 12.9%.
For Cc1nc(NC(=O)C(C)Oc2cccc(Cl)c2)sc1C(=O)N(C)C (centres unmarked), the “hERG current change (%, negative = inhibition) at 10uM” value was 7.22%.
With Cc1nnc(-c2ccccc2)nc1N1CCOCC1 the “hERG current change (%, negative = inhibition) at 10uM” value was -10.2%.
In the case of COc1cc(C2C3=C(CCCC3=O)Nc3[nH]n(-c4ccccc4)c(=O)c32)cc(OC)c1OC (centres unmarked), the “hERG current change (%, negative = inhibition) at 10uM” value is reported as 13.6%.
With COc1cccc(N2CCN(CC(=O)Nc3nc4c(s3)CC(C)CC4)CC2)c1 (centres unmarked) the “hERG current change (%, negative = inhibition) at 10uM” value was -16.7%.
CNS(=O)(=O)c1cccc(C(=O)OCC(=O)c2ccc[nH]2)c1 was tested, and the “hERG current change (%, negative = inhibition) at 10uM” value was 5.56%.
In the case of c1cncc(-c2nc(-c3ccc4c(c3)OCCO4)cs2)c1, the “hERG current change (%, negative = inhibition) at 10uM” value is reported as -4.72%.
With Cc1nn(CCOc2ccc(Br)cc2)c(C)c1[N+](=O)[O-] the “hERG current change (%, negative = inhibition) at 10uM” value was 6.79%.
In the case of c1ccc2[nH]c(CSc3nnc(-c4ccncc4)o3)nc2c1, the “hERG current change (%, negative = inhibition) at 10uM” value is reported as -24.8%.
In the case of O=C(N=C1SCC(=O)N1c1ccccc1Cl)c1ccco1, the “hERG current change (%, negative = inhibition) at 10uM” value is reported as 12.5%.
In the case of C=CCNC(=O)c1ccc(CNS(=O)(=O)c2ccc(NC(C)=O)cc2)cc1, the “hERG current change (%, negative = inhibition) at 10uM” value is reported as 8.09%.
For COc1ccc(C(=O)N2c3ccccc3C(=O)OC2c2ccc3c(c2)OCO3)cc1 (centres unmarked), the “hERG current change (%, negative = inhibition) at 10uM” value was -2.15%.
In the case of c1ccc(Cn2nnc3c(NCC4CCCO4)nc(C4CC4)nc32)cc1 (centres unmarked), the “hERG current change (%, negative = inhibition) at 10uM” value is reported as 0.775%.
For O=C(CCc1nc2ccccc2c(=O)[nH]1)Nc1nnc(SCc2ccccc2)s1, the “hERG current change (%, negative = inhibition) at 10uM” value was -12.3%.
In the case of COCCN(C(=O)c1sc2ccccc2c1Cl)c1c(N)n(CC(C)C)c(=O)[nH]c1=O, the “hERG current change (%, negative = inhibition) at 10uM” value is reported as 0.256%.
In the case of C=CCc1ccc(OCC(O)COc2ccc(CC=C)cc2OC)c(OC)c1, the “hERG current change (%, negative = inhibition) at 10uM” value is reported as -24.5%.
COc1cc(CC(=O)O)c(C(C)=O)cc1OC was tested, and the “hERG current change (%, negative = inhibition) at 10uM” value was 16.9%.
Nc1ccc(-c2nc3ncccc3o2)cc1 was tested, and the “hERG current change (%, negative = inhibition) at 10uM” value was 16.5%.
In the case of Cc1[nH]nc2c1C(=O)CCC2, the “hERG current change (%, negative = inhibition) at 10uM” value is reported as 12.4%.
In the case of CCN(CC)CCCn1c2c(c(SCC(=O)N3CCCc4ccccc43)nc1=O)CCC2, the “hERG current change (%, negative = inhibition) at 10uM” value is reported as -22.9%.
In the case of CC(C)c1ccc2oc(-c3ccc(NC(=O)c4ncn[nH]4)cc3)nc2c1, the “hERG current change (%, negative = inhibition) at 10uM” value is reported as 3.11%.
With COc1ccc(-c2c(C(F)(F)F)nn(C)c2NC(=O)c2cccnc2)cc1 the “hERG current change (%, negative = inhibition) at 10uM” value was 2.41%.
COc1ccc(-n2nc(C(=O)NCC(=O)N3CCN(c4ccccc4F)CC3)c3ccccc3c2=O)cc1 was tested, and the “hERG current change (%, negative = inhibition) at 10uM” value was 0.081%.
In the case of c1ccc(-n2nnc(-c3nccs3)n2)cc1, the “hERG current change (%, negative = inhibition) at 10uM” value is reported as 7.76%.
With Cc1cccc(NC(=O)Cn2c(=O)n(CCC(=O)NC3CCCC3)c(=O)c3ccccc32)c1 the “hERG current change (%, negative = inhibition) at 10uM” value was 12.1%.
N#CC(c1ccccc1)c1ccc(=O)[nH]n1 (centres unmarked) was tested, and the “hERG current change (%, negative = inhibition) at 10uM” value was 19.6%.
For NNC(=O)c1ccc(COc2cccc3ccccc23)cc1, the “hERG current change (%, negative = inhibition) at 10uM” value was 7.75%.
With Cc1cccc(C(=O)NCC(=O)OC(C)C(=O)Nc2ccc(Cl)cn2)c1 (centres unmarked) the “hERG current change (%, negative = inhibition) at 10uM” value was -9.14%.
In the case of CN(C(=O)CCNC(=O)Cn1cnc2ccccc2c1=O)c1ccc(Br)cc1, the “hERG current change (%, negative = inhibition) at 10uM” value is reported as 2.74%.
COc1ccc(OCc2nnc(SCC(N)=O)n2N)cc1 was tested, and the “hERG current change (%, negative = inhibition) at 10uM” value was 15.5%.
For CCOc1ccccc1N(C)S(=O)(=O)c1ccc2c(c1)CC(C)N2C(=O)C1CC1 (centres unmarked), the “hERG current change (%, negative = inhibition) at 10uM” value was 9.49%.
For Cc1ccc(NC(=O)CN(C)C(=O)C(C)N2CCN(Cc3ccccc3C)CC2)cc1 (centres unmarked), the “hERG current change (%, negative = inhibition) at 10uM” value was -26.6%.
For COc1ccc(-c2cc(N)n(S(=O)(=O)c3ccc(F)cc3)n2)cc1OC, the “hERG current change (%, negative = inhibition) at 10uM” value was 21.1%.
CCC(C(=O)NCCCN1CCOCC1)n1c2ccccc2c2nc(=O)cc(C)n21 (centres unmarked) was tested, and the “hERG current change (%, negative = inhibition) at 10uM” value was 4.94%.
With O=C(NC1CCCC1)c1ccc(Cn2c(=O)[nH]c3ccsc3c2=O)cc1 the “hERG current change (%, negative = inhibition) at 10uM” value was -3.16%.
